Measurements taken from paper PMC6212790.
The other results are listed elsewhere or left out. At the low end of the ranking the order means little.

What follows are sequences tested against T1, GST-Rok (full length) (UniProt O34857) (assay: protein binding microarray). Conditions: Rok is a gene silencer of Bacillus subtilis; high values mean tight binding; most listed sequences are background and not binding sites; double strand, one strand shown.
T1 sequence: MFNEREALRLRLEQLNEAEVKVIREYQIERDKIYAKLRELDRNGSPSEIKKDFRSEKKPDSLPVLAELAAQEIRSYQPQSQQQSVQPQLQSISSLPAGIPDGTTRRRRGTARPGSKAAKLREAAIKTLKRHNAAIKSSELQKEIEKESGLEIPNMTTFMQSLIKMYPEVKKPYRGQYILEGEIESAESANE
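Further: rank score from −0.5 (least bound) to 0.5 (best bound).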

Sequence | binding signal [E-score]
CATTAGTA | 0.227
ATATCCGC | 0.1
AAACGATT | 0.0613
AAACGGCG | 0.0231
CAAACCCG | -0.233
CAGTCAGG | -0.231
ATTTGTTG | 0.1
GCCTTGAC | -0.284
GAGGAAGC | -0.0496
GTCGGCCA | -0.225
GGATAGTA | 0.208
AGTGGTAA | 0.262
CGGAAGAG | -0.0941
ATGCGCCC | -0.248
ATTGGTGG | -0.0729
GCGCGCTA | 0.316
ACACACGA | 0.00147
ACAGGGGG | -0.379
CGCCTGAG | -0.19
AAAGACTG | -0.154
AAGTTACA | 0.18
ACGAGCGG | -0.182

Sequence | binding signal [E-score]
CCGAAGAA | 0.164
AGATCGAA | 0.107
TGGTAACA | 0.117
AAATAGAT | 0.263
CCAGGAGG | -0.414
CCCGCTCC | -0.219
AACCACAT | 0.0333
CATATTCC | -0.0313
CTCCCCAC | -0.41
AAGGCAAA | -0.039
GCTCCAAC | -0.343
ACTAATAG | 0.227
ACACGCAA | -0.00319
AGAGGGGC | -0.381
CACAGCCA | 0.0481
CAGTCAAC | -0.101
GCAGGGGC | -0.302
AAACTATA | 0.396
ACTATACA | 0.322
ACAATATA | 0.298
AACAAGAT | 0.147
ACGGGGTA | -0.0246

Sequence | binding signal [E-score]
ATGAGAAT | 0.201
CCAAACCG | -0.121
CACGAGAC | -0.124
GGATGTTA | 0.0229
CGCTGGAC | -0.23
AACCAATC | 0.226
CGCAACAG | -0.148
GTATATAA | 0.278
AGGTCAGA | -0.156
CAAGGGCC | -0.262
CCCACGGC | -0.347
AAGGGTAG | -0.028
ACGCACCG | -0.165
CCTGCAGG | -0.221
ATCTACGC | 0.188
AGGGAACA | -0.0509
CCGTCTCG | -0.25
AACGCTTG | -0.102
ACTTAGCA | 0.104
ACTCAACC | 0.0616
CGCTCAAC | -0.00321
GGACCTGA | -0.143

Sequence | binding signal [E-score]
GGGGATAA | -0.114
CGCTGTTC | -0.0912
CCGACTGC | -0.251
CAAATTTG | 0.127
GGCGCGAA | -0.18
CCCCGCCA | -0.429
ACCAATAA | 0.299
ACCATAGC | -0.089
TCTCGTCA | -0.18
GGCTGTTA | -0.0839
AAGATTAC | 0.0411
AATCCGCA | -0.0293
CGGCTAGC | -0.192
AAACACTC | 0.048
ACGAATCT | 0.189
AAGAATAG | -0.082
ACTGACCG | 0.106
AATTGACT | 0.16
GCCGTTAA | -0.0418
GCAGAGAA | -0.0153
